# Assay results taken from PubChem BioAssay AID686971 (National Center for Advancing Translational Sciences (NCATS), 2013).
# In all, about 360,000 compounds went through this assay and about 7,500 (2.1%) were called active. This list was built around the results that the source calls inconclusive (neither active nor inactive); the mix of calls is not that of the screen. Calls follow the shape of the dose curve; as a rule, active = well fitted cell-killing curve with a large enough effect; inconclusive = small, poorly fitted or top-dose-only effect, or effect the other way, or another doubt; inactive = no such curve, though single readings can be large or run the other way. No potency is given beside an inconclusive call; the fits are too rough.
# Assay: qHTS for induction of synthetic lethality in tumor cells producing 2HG: qHTS for the HT-1080-IDH1KD cell line;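 as to activity, negative = toxicity: 0% = DMSO wells and -100% = cell-free medium wells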
# Details: HT-1080 IDH1 knockdown viability, ATP luminescence, 48 h; activity, negative = toxicity: at 46.1 µM (top of the series) unless noted
# Method in brief: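 Using the IDH1-knockdown HT-1080 line run in the same batch and compound series as the NT line, viability after 48 h at 37 °C was determined by CellTiter-Glo luminescence and expressed as % activity.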
# Potency is read from the fitted curve at half-maximal effect; tags tell the direction and shape of the fitted curve.
Structure (SMILES),Potency,"activity, negative = toxicity"
COc1cccc(Nc2nc(-c3ccccc3)nc3ccccc23)c1,"inconclusive [cytotoxic, single point]",
Cc1ccccc1-c1cc2nc(C)c(Cl)c(=O)n2[nH]1,,inconclusive: -32.6% [cytotoxic]
FC(F)(F)C1=NNC(c2ccc3ccccc3c2)=NN1,,inactive: -12.4%
CCN1C(=O)CCC(C(=O)O)C1c1ccc(OC)cc1 (centres undefined),,inactive: 15.4%
COc1cccc(/C=N/Nc2snc(SC)c2C#N)c1O,"inconclusive [cytotoxic, partial curve, poor fit]",
O=[N+]([O-])c1cc(C=Nc2ccc3ccccc3c2)ccc1Br,,inactive: -25.9%
CCC(Oc1ccccc1)C(=O)NCCOC (centres undefined),,inactive: 17.1%
CC(C)(C)c1ccc(/C=C(\c2nc3ccccc3[nH]2)S(=O)(=O)c2ccccc2)cc1,active: 6.51 µM,
COC(=O)C1=C(C)N(c2ccc(OC)c(OC)c2)C(=O)C1,"inconclusive [cytotoxic, single point]",
CCOC(=O)CNC(=O)Nc1cc(C(C)(C)C)nn1-c1ccccc1,,inactive: 14.7%
O=C(N1CCN(c2ccccn2)CC1)N1c2ccccc2Sc2ccccc21,active: 0.891 µM,
CC(C)N1CCC1(C)C(=O)Nc1cc(-c2ccccc2)nn1C (centres undefined),,inactive: 23.7%
Cc1ccc2c(cnn2C(=O)CCCC(=O)NCc2ccc(Cl)cc2)c1,"inconclusive [cytotoxic, single point]",
COc1ccc(NC2=C(Cl)C(=O)N(c3ccccc3)C2=O)c(OC)c1,,inactive: 6.32%
O=C(O)c1ccc(CN2C[C@@H](CO)O[C@@H](n3cnc4c(NCc5ccc(F)cc5)ncnc43)C2)cc1,"inconclusive [rising, single point]",
Cc1ccc(NC(=O)Cc2nn(C)c(=O)c3ccccc23)cc1F,"inconclusive [cytotoxic, single point]",
O=c1ccnc(Nc2ccc([N+](=O)[O-])cc2)[nH]1,,inconclusive: -34.2% [cytotoxic]
NS(=O)(=O)c1ccc(O)c(NC(=O)c2ccc([N+](=O)[O-])o2)c1,"inconclusive [cytotoxic, single point]",
CC(=O)c1ccc(OCC(=O)Nc2ccccc2C(=O)NC2CC2)cc1,,inactive: 0.16%
COC(=O)c1ccc(CSc2nnc(NC(=O)c3cc4c(s3)CCCC4)s2)cc1,"inconclusive [cytotoxic, single point]",
COCCCNC(=O)c1cc2c(-c3cccc(OC)c3)nn(C)c2s1,"inconclusive [cytotoxic, partial curve, poor fit]",
CCc1nc2ccc(C(=O)NCCCN(C)C)cn2c1N(CC)CCOC,,inactive: 10.7%
CCCCC[C@H]1CN(Cc2ccccc2)C(=O)[C@@H]1CC(=O)NCc1ccc(OC)cc1,,inactive: 8.31%
O=C(Nc1ccccc1)n1cc(-c2ccccn2)c(N2CCOCC2)n1,,inactive: -3.49%
C=C(CN(C)C)C(=O)c1ccc(OC2OC(COC(C)=O)C(OC(C)=O)C(OC(C)=O)C2OC(C)=O)cc1 (centres undefined),active: 4.61 µM,

Structure (SMILES),Potency,"activity, negative = toxicity"
COc1ccc(/C=C2\SC(=S)N(CCCC(=O)Nc3ccc(C(=O)O)cc3)C2=O)cc1OC,,inactive: -2.2%
Cc1cc(NC(=O)C(C)Sc2nc(-c3cccs3)nc3ccccc23)no1 (centres undefined),"inconclusive [cytotoxic, single point]",
Cc1ccc(Cl)cc1N1CCN(C(=O)c2noc(C(C)C)c2[N+](=O)[O-])CC1,"inconclusive [cytotoxic, full curve]",
COc1ccc(CNCC(=O)Nc2cc(OC)cc(OC)c2)cc1,,inactive: 0%
C=CCC[C@@H](CCCCC)OC(=O)/C=C/[C@@H](O)[C@H](O)C[C@H](O)CC=C,"inconclusive [cytotoxic, single point]",
Cc1sc(NC(=O)c2ccccc2)c(C(c2ccc(Cl)cc2)N2CCN(CCO)CC2)c1C (centres undefined),"inconclusive [cytotoxic, single point]",
Cc1ccc(NC(=O)C2CCCN(C(=O)c3ccc(Cl)cc3)C2)cc1C (centres undefined),"inconclusive [cytotoxic, single point]",
C=C(C)COc1ccc(-c2nc(N)ncc2Oc2ccccc2OC)c(O)c1,"inconclusive [cytotoxic, single point]",
CCCc1ccc2oc(C(=O)NCCCN3CCOCC3)c(C)c2c1,"inconclusive [cytotoxic, partial curve]",
c1ccc2c(c1)ccn1c(Cc3ccsc3)c(C3CCCCC3)nc21,"inconclusive [cytotoxic, single point]",
COC(=O)c1[nH]c2ccc(C)cc2c1NC(=O)CCN1CCN(Cc2ccc3c(c2)OCO3)CC1,"inconclusive [cytotoxic, single point]",
CC(=O)CC1c2cc(F)ccc2C=C(c2ccsc2)N1c1ccc(-c2ccc(C(N)=O)cc2)cc1 (centres undefined),"inconclusive [cytotoxic, single point]",
CCOCCCn1c(=N)c(S(=O)(=O)c2ccc(C)cc2)cc2c(=O)n3cc(C)ccc3nc21,,inactive: -2.14%
Cc1cccc(OCCc2c(C)[nH]c(=S)[nH]c2=O)c1,"inconclusive [cytotoxic, single point]",
COc1ccc(S(=O)(=O)N2c3ccccc3OCC2CC(=O)O)cc1 (centres undefined),"inconclusive [cytotoxic, single point]",
CSCC[C@H](NC(=O)OC(C)(C)C)C(=O)N1CCC(C(=O)N[C@@H](Cc2c[nH]c3ccccc23)C(=O)O)CC1,,inactive: 13.2%
C=CC[C@H](CC(=O)N(CCO)Cc1ccccc1)C(=O)NC[C@H](OC(=O)[C@@H](CC=C)Cc1ccc(F)cc1)c1ccccc1,"inconclusive [cytotoxic, single point]",
CN(C)CCCC1Sc2ccccc2Sc2ccccc21 (centres undefined),"inconclusive [cytotoxic, single point]",
Cc1nnsc1C(=O)NC1CCCc2c1cnn2-c1cc(F)cc(F)c1 (centres undefined),,inactive: 0.0951%
COc1ccc(-c2coc3c(C(=O)NCc4ccc(C(F)(F)F)cc4)cccc23)c(C)c1,"inconclusive [cytotoxic, single point]",
CCOC(=O)c1cc2c(=Cc3ccc(N(C)C)cc3)c3ccccc3n2[n+]1C,active: 8.2 µM,
c1ccc(COc2cccc(-c3cc4nc(NCCOc5ccccc5)ccn4n3)c2)cc1,"inconclusive [cytotoxic, single point]",
CC(=O)Nc1ccc(Nc2cc(C)nc3c(-c4ccccc4)cnn23)cc1,active: 13 µM,
CCCCCCCCN1C(=O)[C@H](CC(=O)N2CCN(C(=O)C3CC3)CC2)C[C@@]2(C(=O)OCC)CCCC=C12,"inconclusive [cytotoxic, single point]",
COc1ccc(CN(C)C(=O)CCl)cc1,"inconclusive [cytotoxic, single point]",

Structure (SMILES),Potency,"activity, negative = toxicity"
CC(C)CCNCC(O)CON=C1c2ccccc2-c2ccccc21 (centres undefined),"inconclusive [cytotoxic, single point]",
CN1CCN(C2CCN(c3cccc(Cl)c3)CC2)CC1CCO (centres undefined),,inactive: -0.641%
Cn1cc(C(=O)N/N=C/c2cccs2)c2ccccc21,"inconclusive [cytotoxic, single point]",
Cc1ccc(C)c(-c2nnc(OCC(=O)Nc3cc(C)on3)c3ccccc23)c1,"inconclusive [cytotoxic, single point]",
CC1CCCCN1S(=O)(=O)c1ccc(NC(=O)c2ccco2)cc1 (centres undefined),,inactive: 2.56%
COc1ccc(CN2C(=O)c3cccnc3C2=O)cc1S(=O)(=O)N1CCCC(C)C1 (centres undefined),,inactive: 0%
OC(CNc1nc(-c2cccnc2)nc2ccccc12)c1ccccc1 (centres undefined),"inconclusive [cytotoxic, partial curve]",
Cc1ccc(C(=O)Nc2nc(-c3ccccn3)cs2)cc1S(=O)(=O)N1CCOCC1,active: 4.61 µM,
Cc1cc(C)nc(NC(=O)/C=C/c2ccc3c(c2)OCO3)c1,active: 4.61 µM,
CCC(=O)OCOc1ccc(/C=C2/CCC(CN(C)C)C2=O)cc1 (centres undefined),active: 16.4 µM,
CCCCC(=O)NC(c1ccccc1OC)c1ccc2cccnc2c1O (centres undefined),active: 2.59 µM,
Cc1noc(C)c1-c1ccc(C(=O)NC2CCCCC2)c2occc12,,inactive: -16.2%
Cc1ccc(-n2c(N)cc(=O)nc2SCC(=O)N2CCN(c3ccccc3)CC2)cc1C,,inactive: 0.0102%
CN(C)CC/C=C1\c2ccccc2Sc2ccc(Cl)cc21,"inconclusive [cytotoxic, single point]",
O=C(CN(C(=O)CCC(=O)Nc1ccccn1)C1CCCC1)NCc1ccc(F)cc1,,inactive: 3.82%
COc1cccc(OCc2cc(C(=O)NCCc3cccc(C)n3)no2)c1,,inactive: -16.6%
COc1ccc(C(CNC(=S)NCc2ccccc2)N2CCCC2)cc1 (centres undefined),,inactive: -13.1%
CC1C(=O)N(Cc2cn(Cc3ccco3)nn2)CCS(=O)(=O)N1Cc1ccc(-c2ccc(Cl)c(Cl)c2)cc1 (centres undefined),"inconclusive [cytotoxic, single point]",
Cc1ccc(/C=C/C(=O)c2ccc(O)cc2)cc1,"inconclusive [cytotoxic, single point]",
COc1ccc(-c2csc(NC(=O)CSCc3c(C)noc3C)n2)c(OC)c1,,inactive: -19.1%
CCC(CC)NC(=O)c1cc(S(=O)(=O)N2CCCCC2)ccc1N1CCOCC1,,inactive: 4.1%
CC[N+](C)(C)CC/C=C1/c2ccccc2Sc2ccc(Cl)cc21,"inconclusive [rising, partial curve]",
Cc1ccc(NC(=O)CCN2C(=O)c3ccccc3C2=O)c(C)c1,,inconclusive: 34.3%
CCN(CCO)CC1CCCC2CCCCC21 (centres undefined),,inactive: 9.85%
